Data: PubChem BioAssay AID1240 (Sanford-Burnham Center for Chemical Genomics, 2008)
In all, about 50,000 compounds went through this assay and about 800 (1.6%) showed an effect of 50% or more. The list shows a part of the results.

target: Bcl-2-like protein 10 (Homo sapiens) (UniProt Q9HD36); assay: Phenotype converters, Bcl-B/TR3 peptide binding displacement, primary biochemical FP (AID 1240); conditions: GST-Bcl-B / FITC-TR3 peptide fluorescence polarization; stronger effect = higher value; compound at 3.75 mg/L;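 note: 0% = Bcl-B with tracer peptide and DMSO and 100% = tracer peptide lacking Bcl-B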
Sequence of UniProt Q9HD36 (Q9HD36 whole entry, looked up): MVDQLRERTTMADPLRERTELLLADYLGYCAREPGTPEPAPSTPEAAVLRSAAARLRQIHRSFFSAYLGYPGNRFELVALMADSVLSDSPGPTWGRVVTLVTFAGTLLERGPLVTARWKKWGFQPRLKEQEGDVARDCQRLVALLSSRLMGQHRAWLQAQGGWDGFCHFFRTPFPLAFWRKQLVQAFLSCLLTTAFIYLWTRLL

Point of comparison: CC(C)Cn1c(=S)[nH]c2sc3c(c2c1=O)CC(C)(C)OC3, displacement -1.9%. Against it:
- Cc1cc(C)c(S(=O)(=O)Nc2cccc3ccc(C)nc23)c(C)c1 — higher, 13%
- O=c1ccc2ccc(OCc3ccccc3Cl)cc2o1 — higher, 12.8%
- CCOc1cc(/C=C2\SC(N)=NC2=O)cc(Br)c1OS(=O)(=O)c1ccc([N+](=O)[O-])cc1 — higher, 18.3%
- Cc1nc2ccccc2n1S(=O)(=O)c1ccc2ccccc2c1 — higher, 12.6%
- CC1CN(S(=O)(=O)c2ccccc2[N+](=O)[O-])CC(C)O1 (stereo not given) — higher, 1.6%
- O=C(Nc1ccccc1C(=O)N1CCOCC1)c1ccc([N+](=O)[O-])cc1 — higher, 3%
- COc1ccc(CNCc2ccncc2)cc1OC — higher, 17.8%
- COc1ccc(C(=O)/C=C\Nc2cc(Cl)ccc2O)c(OC)c1 — higher, 10.1%
- O=C(COc1ccccc1Cl)NNC(=O)c1ccc(F)cc1 — lower, -4%
- CN1C(=O)NC(=O)/C(=C/c2cccn2-c2cccc([N+](=O)[O-])c2)C1=O — higher, 115%
- COc1ccc(-c2nc3ccccc3o2)cc1NC(=O)c1cc2ccccc2cc1OC — lower, -8.6%
- COc1cc(C(=O)Nc2ccc3nn(-c4ccc(C)c(C)c4)nc3c2)cc(OC)c1OC — higher, 0.7%
- CCOC(=O)C1=C(C)NC(=O)NC1c1ccco1 (stereo not given) — lower, -5.1%
- CC1(C)CC(=O)c2c(nc(SC3C=CCCC3)c(C#N)c2-c2ccccc2)C1 (stereo not given) — lower, -13.6%
- CCOc1ccc(N(CC(=O)N(C)C)S(=O)(=O)c2ccc(SC)cc2)cc1 — higher, 1.4%
- CCCOc1cccc(C(=O)Nc2ccc(Cl)cn2)c1 — higher, 13.2%
- CCCc1nccn1S(=O)(=O)c1ccc(Br)c2ccccc12 — higher, 12.3%
- CC1(C)CC(=O)C=C(NCCc2ccccc2)C1 — higher, -1.6%
- COc1cc(OC)cc(C(=O)Nc2ccc([N+](=O)[O-])cn2)c1 — higher, 2.9%
- CC(C)(C)NCCOc1ccc(Cl)cc1Cl — higher, 7%
- CN=C1S/C(=C\c2cc3c(cc2Br)OCO3)C(=O)N1C — lower, -7.3%
- Cc1cccc(N2C(=O)c3ccc(Oc4cccc([N+](=O)[O-])c4)cc3C2=O)c1C — higher, 16.8%
- CC(=O)Nc1ccc(N2C(=O)C3C4c5ccccc5C(c5ccccc54)C3C2=O)cc1Cl (stereo not given) — higher, 0.8%
- NC(=O)c1ccccc1NC(=O)COc1ccccc1Cl — lower, -8.7%
- O=c1c([N+](=O)[O-])c(Cl)c2ccccc2n1-c1ccccc1 — higher, 12.3%
- CCCC(C(=O)O)P(=O)(c1ccccc1)c1ccccc1 (stereo not given) — higher, 0.6%
- COc1ccc(S(=O)(=O)Nc2cc(Br)c(O)c(Br)c2)cc1 — higher, 0.7%
- CCOc1ccc(/C=C2\SC(=S)N(CCC(=O)Nc3cccnc3)C2=O)cc1 — higher, 77%
- Cc1cccc(OCC(=O)Nc2ccc3oc4ccccc4c3c2)c1 — lower, -6.4%
- Cc1cc(OCC(=O)NCCCN2CCOCC2)ccc1Br — lower, -48.8%
- Cc1cc(Cl)ccc1NC(=O)C(=O)N/N=C/c1cccs1 — higher, 7.9%
- COc1ccc(-c2nnc(N)s2)cc1 — lower, -3.4%
- CCN(CC)C(=O)c1ccccc1NC(=O)c1ccccc1F — higher, 1.9%
- CC(C)(C)c1ccc(C=NN2CCN(Cc3ccccc3)CC2)cc1 — lower, -9.5%
- CN(C)c1ccc(/C=N/N2CCN(c3ccccn3)CC2)cc1 — higher, 0.1%
- COc1cc(C2C(C(=O)OCCOc3ccccc3)=C(C)NC3=C2C(=O)CCC3)ccc1OC(C)=O (stereo not given) — lower, -7.6%
- Cc1cc2nn(-c3ccccc3)nc2cc1N — higher, 10.9%
- COC(=O)c1cc(C(=O)NC2CCSC2=O)cc([N+](=O)[O-])c1 (stereo not given) — higher, 2.1%
- COc1cc(/C=N\N2CCN(c3ccc(C)cc3)CC2)ccc1OCc1ccccc1 — higher, 9.6%
- Cc1cccc(C(NC(N)=O)c2ccccc2)c1 (stereo not given) — higher, -1%
- N/C(=N/c1nc2ccccc2o1)NC(=O)Nc1ccccc1 — higher, 5.2%
- Nc1nc2ccccc2n1CCOc1ccc2ccccc2c1 — lower, -3.3%
- CCCCNCCCCCOc1ccccc1C(C)(C)C — higher, 9.1%
- Cc1cccc(-c2cc(C(=O)Nc3ccccc3C(N)=O)c3ccccc3n2)c1 — lower, -7.7%
- CCOc1cc(/C=C2\C(=O)N(c3cccc(C(=O)O)c3)N=C2C)cc(Br)c1O — lower, -104%
- CC(C)(C)NC(=O)c1cccc(NC(=O)c2ccc(Cl)c(Cl)c2)c1 — higher, 13.8%
- Nc1nnnn1/N=C/c1ccc(OCc2ccccc2)cc1 — higher, 11.6%
- CCCCOc1ccc2c3c(cccc13)C(=O)c1ccccc1-2 — higher, 176%
- O=C(NC(Cc1c[nH]c2ccccc12)C(=O)O)/C(=C/c1ccco1)NC(=O)c1ccccc1 (stereo not given) — higher, 1.8%
- COc1ccc(C(=O)CC(c2ccc(C(C)C)cc2)S(=O)(=O)c2ccc(C)cc2)cc1 (stereo not given) — higher, 33.8%
- CCCOc1ccc(C2C3=C(CC(C)(C)CC3=O)OC3=C2C(=O)CC(C)(C)C3)cc1OCC — higher, 6.1%
- O=C(O)c1cc(NC(=O)c2ccc3c(c2)C(=O)N(C2CCCCC2)C3=O)cc(C(=O)O)c1 — higher, 10.9%
- CCCCOC(=O)c1cccc(NC(=O)c2cccc(Br)c2)c1 — higher, 1.5%
- COc1ccccc1CC(=O)Nc1cc(C)ccn1 — higher, 12.9%
- O=C(CN1C(=O)c2cccc3cccc(c23)C1=O)OCc1ccc2c(c1)OCO2 — lower, -2.1%
- O=C(O)CCCN1C(=O)/C(=C\c2ccc(-c3cccc([N+](=O)[O-])c3)o2)SC1=S — higher, 59%
- COc1cccc(/C=N/N=C2/NC(=O)CS2)c1 — higher, 4.6%
- Cc1ccc(OCC(=O)Nc2cc([N+](=O)[O-])ccc2Cl)cc1 — higher, 7.1%
- O=C1/C(=C\c2ccsc2)SC(=S)N1Cc1ccccc1 — higher, 17.1%
- O=c1oc2ccccc2c(O)c1Cc1ccccc1 — higher, 13.1%
- O=C1NC(=S)N(c2cccc(Br)c2)C(=O)/C1=C/c1ccc(-c2ccccc2C(=O)O)o1 — higher, 0.4%
- O=C(N/N=C/c1cc(Br)ccc1OC(=O)c1ccco1)c1cccnc1 — lower, -2.3%
- COc1ccc(-c2c(C#N)c(SCC(=O)c3ccc(Cl)cc3)nc(C)c2C(=O)Nc2ccc(Cl)cc2)cc1 — higher, 3.9%
- N=C1S/C(=C\c2ccc(-c3cccc([N+](=O)[O-])c3)o2)C(=O)N1c1ccc2c(c1)OCO2 — higher, 11.6%
- COc1ccc(C(=O)Nc2ccc(-c3nc4cc(C)c(C)cc4o3)c(O)c2)cc1[N+](=O)[O-] — higher, -0.7%
- Cc1cc(C(=O)Oc2ccccc2C(=O)O)c(C)o1 — lower, -15.8%
- COC(=O)C1=C(C)N(C)C(C)=C(C(=O)OC)C1c1ccccc1C — lower, -10.6%
- O=C(/C(=N\O)n1cncn1)c1ccc(Br)cc1Br — higher, 11.1%
- CCCCc1ccc(NS(=O)(=O)c2c(C)cc(C)cc2C)cc1 — lower, -11.6%
